The text below walks through data of the supplement of paper PMC4604168 (melanoma cell lines).

The structures appear in SMILES notation. Some of the results follow. Single values are uncertain, as repeats are few or missing.
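Note: cells treated in 1,536-well plates, then fixed and DAPI-stained, with nuclei counted from automated high-throughput microscope images.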

The subject of the first experiment is COLO800. The experiment can be described thus: cell count relative to DMSO control; melanoma cells; higher = more viable cells. The settings on record: library dose: standard library concentration; 72 h.
Molecule `Cc1ccc(NC(=O)c2cccc(N(C)C)c2)cc1NC(=O)c1ccc(O)cc1` + CN(NC(=O)CC(=O)NN(C)C(=S)c1ccccc1)C(=S)c1ccccc1 [STA4783] (first compound 10 µM, partner dose 0.03 µM) gave a cell count of 11.5%.

As for `CC(C)(C)c1cnc(CSc2cnc(NC(=O)C3CCNCC3)s2)o1` + O=S(=O)(c1ccccc1)N(CC(F)(F)F)c1ccc(C(O)(C(F)(F)F)C(F)(F)F)cc1 [T0901317] (first compound 0.05 µM, partner dose 7 µM), the cell count was found to be 57.9%.

On to `CCCCCCCCc1ccc(CCC(N)(CO)CO)cc1` [fingolimod] + O=C1NC(=O)/C(=C/c2ccc(-c3ccc(F)cc3O)o2)S1 [AS252424] (first compound 10 µM, partner dose 5 µM), for which the cell count amounted to 10.2%.

`COc1cc2c(Oc3ccc4[nH]c(C)cc4c3F)ncnc2cc1OCCCN1CCCC1` [cediranib] + CCN(CC)CCCCNc1ncc2cc(-c3cc(OC)cc(OC)c3)c(NC(=O)NC(C)(C)C)nc2n1 [PD173074] (first compound 2 µM, partner dose 0.5 µM) had a cell count of 58.1%.

In turn, `CCCCCCCCc1ccc(CCC(N)(CO)CO)cc1` [fingolimod] + O=c1cc(-c2cccc3c2Sc2ccccc2S3)oc(N2CCOCC2)c1 [KU55933] (first compound 10 µM, partner dose 5 µM) gave a cell count of 9.97%.

Molecule `Cc1ccc(NC(=O)c2cccc(N(C)C)c2)cc1NC(=O)c1ccc(O)cc1` + O=C(O)c1ccc(-c2c[nH]c3ncc(-c4ccccc4)cc23)cc1C1CCCC1 [GSK650394] (first compound 10 µM, partner dose 0.8 µM) displayed a cell count of 99.3%.

A further experiment deals with COLO829. Described as above. The settings on record: library dose: standard library concentration; 72 h.
In the case of `NC(=O)c1ccc(N(C(N)=O)c2c(F)cccc2F)nc1-c1ccc(F)cc1F` + CC(C)C[C@H](NC(=O)[C@H](Cc1ccccc1)NC(=O)c1cnccn1)B(O)O [Bortezomib] (first compound 2 µM, partner dose 0.005 µM), the cell count is 10.4%.

`CCCCCCCCc1ccc(CCC(N)(CO)CO)cc1` [fingolimod] + c1cc(-c2cnn3cc(-c4ccc(OCCN5CCCCC5)cc4)cnc23)ccn1 [Dorsomorphin] (first compound 10 µM, partner dose 2 µM) had a cell count of 45.9%.

As to `CN(NC(=O)CC(=O)NN(C)C(=S)c1ccccc1)C(=S)c1ccccc1` + N#Cc1c(O)c2c(-c3ccc(-c4ccccc4O)cc3)csc2[nH]c1=O [A769662] (first compound 0.03 µM, partner dose 10 µM), the cell count amounted to 54.8%.

In the case of `CCCCCCCCc1ccc(CCC(N)(CO)CO)cc1` [fingolimod] + COc1cc2ncnc(Nc3ccc(Oc4ccccc4)cc3)c2cc1OC [SrcI1] (first compound 10 µM, partner dose 10 µM), the cell count was determined as 25%.

The molecule `CC(C)(C)c1cnc(CSc2cnc(NC(=O)C3CCNCC3)s2)o1` + COc1cc2c(Oc3ccc4[nH]c(C)cc4c3F)ncnc2cc1OCCCN1CCCC1 [cediranib] (first compound 0.05 µM, partner dose 2 µM) returned a cell count of 122%.

As for `NC(=O)c1ccc(N(C(N)=O)c2c(F)cccc2F)nc1-c1ccc(F)cc1F` + Oc1cc(-c2nc(-c3ccccc3)[nH]c2-c2ccncc2)ccc1Cl [L779450] (first compound 2 µM, partner dose 1 µM), the cell count was found to be 94.8%.

The molecule `CCc1ccc(CCOc2ccc(CC3SC(=O)NC3=O)cc2)nc1` (stereo unspecified) [pioglitazone] + COc1ccc(COc2ccc(Cc3cnc(N)nc3N)cc2OC)cc1 [GW2580] (first compound 10 µM, partner dose 5 µM) registered a cell count of 86.3%.

As to `NC(=O)c1ccc(N(C(N)=O)c2c(F)cccc2F)nc1-c1ccc(F)cc1F` + CCN(CC)CCNC(=O)c1c(C)[nH]c(/C=C2\C(=O)Nc3ccc(F)cc32)c1C [sunitinib] (first compound 2 µM, partner dose 2 µM), the cell count was 122%.

Take `NC(=O)c1ccc(N(C(N)=O)c2c(F)cccc2F)nc1-c1ccc(F)cc1F` + Nc1cccc2c1CN(C1CCC(=O)NC1=O)C2=O [lenalidomide] (first compound 2 µM, partner dose 5 µM): the cell count worked out at 99.7%.

On to `COc1cc2c(Oc3ccc4[nH]c(C)cc4c3F)ncnc2cc1OCCCN1CCCC1` [cediranib] + O=C(Nc1ccccc1)c1cc([N+](=O)[O-])ccc1Cl [GW9662] (first compound 2 µM, partner dose 10 µM), for which the cell count amounted to 70.1%.
